# According to PubChem BioAssay AID1347043 (National Center for Advancing Translational Sciences (NCATS), 2019):
# Screen size: about 76,000 compounds; about 1,900 (2.5%) were called active. The shares of active, inactive and inconclusive entries below differ from those in the screen. Calls follow the shape of the dose curve; as a rule, active = well fitted inhibition curve with a large enough effect; inconclusive = small, poorly fitted or top-dose-only effect; inactive = flat fitted curve, though single readings scatter. Potencies beside an inconclusive call are fits to weak or partial responses and may not hold up.
# Biological target: Luciferin 4-monooxygenase (Photinus pyralis) (UniProt P08659)
# Assay: Firefly luciferase inhibition profiling of diverse chemical library using quantitative high-throughput screening; also: nearly all actives have a fitted effect of over 65% in size
# Conditions: purified P. pyralis luciferase, luminescence, biochemical; series mostly up to 115 µM
# How it was run: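 Purified 10nM P. pyralis luciferase with 10uM D-luciferin and 10uM ATP in 50mM Tris acetate pH 7.5, 10mM Mg acetate, 0.01% Tween-20, 0.05% BSA. qHTS titration; luminescence read by CCD imager.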
# Potency is read from the fitted curve at half-maximal effect; tags tell the direction and shape of the fitted curve.
# UniProt P08659, sequence (P08659 whole entry, looked up): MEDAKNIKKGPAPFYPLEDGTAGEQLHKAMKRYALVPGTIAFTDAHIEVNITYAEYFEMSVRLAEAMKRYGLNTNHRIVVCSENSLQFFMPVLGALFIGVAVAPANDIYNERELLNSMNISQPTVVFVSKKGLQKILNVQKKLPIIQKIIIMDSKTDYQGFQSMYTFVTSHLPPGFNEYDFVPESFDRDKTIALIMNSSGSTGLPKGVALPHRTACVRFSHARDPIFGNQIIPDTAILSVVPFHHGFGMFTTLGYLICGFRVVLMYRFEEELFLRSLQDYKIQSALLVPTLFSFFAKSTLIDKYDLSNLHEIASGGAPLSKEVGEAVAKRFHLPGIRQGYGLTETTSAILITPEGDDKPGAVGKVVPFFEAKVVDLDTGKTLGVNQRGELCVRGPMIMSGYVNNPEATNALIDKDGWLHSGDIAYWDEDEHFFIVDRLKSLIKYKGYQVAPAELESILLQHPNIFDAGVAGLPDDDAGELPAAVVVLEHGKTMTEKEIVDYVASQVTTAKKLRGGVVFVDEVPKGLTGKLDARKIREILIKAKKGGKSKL
row,SMILES,Potency
1,CN(Cc1cccc(C(F)(F)F)c1)C(=O)Cc1ccc(F)cc1,"inconclusive: 89.1 µM [inhibitor, partial curve]"
2,O=C(Nc1nccs1)c1ccc2c(c1)OCCN(c1ccccc1)C2,"inconclusive: 14.1 µM [inhibitor, full curve]"
3,COCc1nc2nc(-c3ccccc3)c(-c3cccc(CO)c3)cc2n1C,"inconclusive: 70.8 µM [inhibitor, partial curve, poor fit]"
4,COc1ccc(-n2cc(CN3CCC(O)CC3)c(-c3cccc(F)c3)n2)cc1,active: 39.8 µM
5,Cc1cc(-c2nc3ncccc3[nH]2)c(C)[nH]1,active: 39.8 µM
6,CCC1CN(c2ccc(-c3nc(-c4ccc(OC)cc4)no3)cn2)CCN1C (centres undefined),"inconclusive: 44.7 µM [inhibitor, partial curve]"
7,C[S+](=O)([O-])c1cccc(NC(=O)Cc2c[nH]c3ncc(-c4ccccc4)cc23)c1,"inconclusive: 100 µM [inhibitor, partial curve]"
8,COc1ccc(CN[C@H]2[C@H](O)[C@@H](N3CCCCC3)[C@@H]3OC[C@H]2O3)cc1,inactive
9,O=C(c1cc(-c2ccccn2)n[nH]1)N1C[C@@H](CN2CCCCC2)[C@@H](CO)C1,inactive
10,CC(C)OC(=O)N1CCC(COc2ccc3c(cnn3CCC(=O)O)c2)CC1,"inconclusive: 79.4 µM [inhibitor, partial curve]"
11,CN(Cc1cccn1C)C(=O)Nc1ccccc1,"inconclusive: 100 µM [inhibitor, partial curve]"
12,COc1ccc(-c2cnc3[nH]cc(CC(=O)NCc4cccnc4)c3c2)cn1,"inconclusive: 79.4 µM [inhibitor, partial curve]"
13,CCOc1ncccc1C(=O)N1CCc2onc(-c3ccccc3F)c2C1,inactive
14,CC(C)c1nc(C(=O)N2CCc3onc(-c4ccccc4F)c3C2)cs1,"inconclusive: 44.7 µM [inhibitor, partial curve]"
15,CC(C)c1noc([C@@H]2C[C@H](NC(=O)C3CCCCC3)CN2C)n1,inactive
16,Cc1nn(C)cc1CN1C[C@@H](COCC2CC2)[C@H](c2ccccn2)C1,inactive
17,CCOC(=O)C1(Cc2ccccc2Cl)CCN(C(=O)c2ccsc2)CC1,active: 25.1 µM
18,CN(C)c1cccc(-c2cnc(Nc3ccc(N4CCOCC4)cc3)c3c2CCO3)c1,"inconclusive: 5.01 µM [inhibitor, full curve]"
19,COc1ccc(CN2CCc3oc(C)c(C(=O)NC4CCN(C)CC4)c3C2)cc1,inactive
20,Cc1ccccc1[C@H]1C[C@@H](O)[C@@H](O)[C@@H]1NCC(C)(C)O,inactive
21,COc1cccc(C(=O)NCCn2ccn3nc(-c4ccc(F)cc4)cc3c2=O)c1OC,"inconclusive: 15.8 µM [inhibitor, full curve]"
22,Cc1nccn1CCC(NC(=O)c1cn(CCN)nn1)c1ccccc1 (centres undefined),inactive
23,COc1ccc(-c2ccc3nc(-c4ccccc4Cl)oc3c2)c(OC)c1OC,"inconclusive: 28.2 µM [inhibitor, partial curve, poor fit]"

row,SMILES,Potency
1,CCCN1C(=O)CCc2cc(NC(=O)c3ccc4c(c3)OCO4)ccc21,active: 31.6 µM
2,COc1ccc2nc([C@H]3CCN(C4CCN(C)CC4)C3)[nH]c2c1,"inconclusive: 63.1 µM [inhibitor, full curve]"
3,CC(=O)Nc1cccc(-c2ccnc(-c3nnc(C)n3Cc3ccccc3)c2)c1,active: 50.1 µM
4,c1cncc(Nc2cc3c(cn2)CN(Cc2cccs2)CCN3)c1,"inconclusive: 14.1 µM [inhibitor, full curve]"
5,CC(=O)c1ccc(NC(=O)N[C@H]2CCN3C(=O)[C@@H](Cc4ccccc4)NC(=O)[C@H]23)cc1,inactive
6,COc1ccc2[nH]c(C(=O)N3CCN4CCS(=O)(=O)N(C5CC5)C(=O)C4C3)cc2c1 (centres undefined),"inconclusive: 44.7 µM [inhibitor, partial curve, poor fit]"
7,COc1cc(F)ccc1-c1cc(C(=O)NCc2ccnc(N)c2)c2c(c1)ncn2C,"inconclusive: 89.1 µM [inhibitor, partial curve]"
8,CCN(CC)Cc1nc(C2(O)CCN(C3CCN(C(C)=O)CC3)CC2)cs1,inactive
9,CCc1ccc(NC(=O)Nc2cccc(-c3nnc4n3CCCC4)c2)cc1,"inconclusive: 0.562 µM [inhibitor, full curve, poor fit]"
10,CNC(=O)c1cccc2c(C)nnn12,"inconclusive: 100 µM [inhibitor, partial curve]"
11,CC(=O)N(C1CCOCC1)C1CCN(S(=O)(=O)c2cc(F)ccc2C)CC1,inactive
12,CCOc1ccc(C2Cn3nnc(-c4nc(-c5ccccc5)no4)c3CO2)cc1 (centres undefined),active: 8.91 µM
13,COc1ccc(NC(=O)C2CCN(C(=O)c3ncn4c3COC(c3ccc(F)cc3)C4)CC2)cc1F (centres undefined),"inconclusive: 44.7 µM [inhibitor, partial curve]"
14,COc1ccc(CN2CCc3nc(C(=O)Nc4ccccc4)oc3CC2)cc1,active: 20 µM
15,CCCS(=O)(=O)N1C[C@@H](Oc2ccccc2)C[C@H]1C(=O)NC,inactive
16,COc1ccc(NC(=O)N2CCCC(c3noc(COc4ccccc4)n3)C2)c(C)c1 (centres undefined),inactive
17,O=C1c2cnc(-c3ccncc3)nc2OCCN1c1ccccc1,"inconclusive: 50.1 µM [inhibitor, partial curve]"
18,CCN1C(=O)CCc2cc(NC(=O)c3ccc(F)cc3)ccc21,"inconclusive: 44.7 µM [inhibitor, partial curve]"
19,CC(C)c1noc([C@H]2C[C@@H]3NCCCCCCNC(=O)[C@@H]3C2)n1,inactive
20,COCCN1CCOc2nc(-c3cccc(C)c3)ncc2C1=O,"inconclusive: 12.6 µM [inhibitor, full curve, poor fit]"
21,CCc1cccc(NC(=O)C2CCN(C(=O)c3ncn4c3COC(c3ccc(OC)cc3)C4)CC2)c1 (centres undefined),"inconclusive: 39.8 µM [inhibitor, partial curve]"
22,Cc1ccsc1C(=O)N1CC(Oc2cccc(-c3nc(-c4ccccc4)no3)c2)C1,"inconclusive: 11.2 µM [inhibitor, full curve, poor fit]"
23,COc1ccc(NC(=O)O[C@@H]2CO[C@H]3[C@@H]2OC[C@@H]3NS(=O)(=O)c2ccc3ccccc3c2)cc1,"inconclusive: 39.8 µM [inhibitor, partial curve]"

row,SMILES,Potency
1,Cc1ccc(-n2cc(CN3CCn4nc(C(O)c5nccn5C)cc4C3)cn2)cc1 (centres undefined),"inconclusive: 39.8 µM [inhibitor, partial curve, poor fit]"
2,Cc1cc(Cl)ccc1NC(=O)C1CCN(C(=O)c2ncn3c2COC(c2ccc(F)cc2)C3)CC1 (centres undefined),"inconclusive: 39.8 µM [inhibitor, partial curve]"
3,O=C(c1ccc2c(c1)OCO2)N1CCC2(CC1)N=C(c1ccccc1)NO2,active: 39.8 µM
4,CN(C)c1cccc(C(=O)N2CCCC(n3cc(-c4nc(-c5ccccc5)no4)nn3)C2)c1 (centres undefined),"inconclusive: 56.2 µM [inhibitor, partial curve, poor fit]"
5,COc1ccc(N2CC(c3noc(-c4ccc(C(C)(C)C)cc4)n3)CC2=O)cc1OC (centres undefined),"inconclusive: 39.8 µM [inhibitor, partial curve, poor fit]"
6,CCc1ccc(NC(=O)c2ccc(CN3C(=O)NC4(CCOCC4)C3=O)cc2)cc1,active: 12.6 µM
7,Cc1cc(F)ccc1NC(=O)CN1C(=O)NC2(CCC(C(C)(C)C)CC2)C1=O (centres undefined),inactive
8,O=C(Nc1ccccc1F)N1CC(Oc2cccc(-c3nc(-c4ccccc4)no3)c2)C1,"inconclusive: 6.31 µM [inhibitor, full curve, poor fit]"
9,CC(C)CCNC(=O)CCc1nnc(-c2ccc(OC(C)C)cc2)[nH]c1=O,"inconclusive: 44.7 µM [inhibitor, partial curve]"
10,COc1ccc(CN2CC3(CCN(C(=O)Nc4ccc5c(c4)OCCO5)CC3)C2=O)cc1,"inconclusive: 15.8 µM [inhibitor, full curve]"
11,Cc1cc(-c2cnc3n[nH]c(-c4ccc5c(c4)OCO5)c3n2)ccn1,inactive
12,COC[C@@H]1CCCN1Cc1cn(-c2ccccc2)nc1-c1ccc(OC)cc1F,"inconclusive: 44.7 µM [inhibitor, partial curve]"
13,O=C(NCCC1CCN(C(=O)Nc2cc(F)ccc2F)CC1)c1cnccn1,inactive
14,CN1C[C@@H](NS(=O)(=O)c2ccccc2)C[C@H]1c1nc(-c2ccccn2)no1,active: 22.4 µM
15,CCn1nccc1C(=O)N1CC(Oc2ccc(-c3nc(-c4ccccc4)no3)cc2)C1,"inconclusive: 11.2 µM [inhibitor, full curve]"
16,O=C(NC1CCCCCC1)C1CCN(C(=O)c2ncn3c2COC(c2ccccc2)C3)CC1 (centres undefined),active: 12.6 µM
17,CCN(CC)C(=O)C1CCCN(Cc2ccc3c(c2)CN(Cc2cc(OC)cc(OC)c2)CCO3)C1 (centres undefined),inactive
18,COCCN1Cc2ccc(Nc3ccc(OC)cc3)nc2C(C)(C(=O)Nc2ccccc2)C1 (centres undefined),"inconclusive: 50.1 µM [inhibitor, partial curve, poor fit]"
19,COc1ccc(OC)c(NC(=O)c2ccc3c(c2)N(C)C2CCCCN2C3=O)c1 (centres undefined),"inconclusive: 39.8 µM [inhibitor, full curve]"
20,O=C(NC[C@@H]1CCCO1)c1ncoc1C1CC1,inactive
21,CC(C)CNc1ccc2c(n1)C(C)(C(=O)NC1COC1)CN(Cc1ccccc1)C2 (centres undefined),inactive
22,O=C(CC1CCCCC1)N1CCn2c(nnc2[C@@H]2C[C@@H](O)CN2Cc2ccccc2)C1,inactive
23,NC(=O)CN1CCCC(N2CCN(Cc3ccc4c(c3)OCO4)CC2)C1 (centres undefined),inactive
